About 64,000 (15%) of roughly 420,000 compounds were called active. The shares of active, inactive and inconclusive entries below differ from those in the screen. Calls follow the shape of the dose curve; as a rule, active = well fitted inhibition curve with a large enough effect; inconclusive = small, poorly fitted or top-dose-only effect; inactive = flat fitted curve, though single readings scatter. No potency is given beside an inconclusive call; the fits are too rough.
Assay: qHTS for Inhibitors of human tyrosyl-DNA phosphodiesterase 1 (TDP1): qHTS in cells in absence of CPT; also: nearly all actives have a fitted effect of over 55% in size
Conditions: DT40 Tdp1-/- hTDP1 cells, no CPT, ATP luminescence, 48 h; activity change, negative = growth inhibition: at 46.2 µM (top of the series) unless noted
How it was run: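 Growth kinetics read by CellTiter-Glo luminescence after ≥48 hr at 37 °C. Cells: DT40 Tdp1-/- stably carrying human TDP1, 400 per well, compound exposure in the absence of CPT (DMSO vehicle).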
% is scaled to controls: 0 for no effect and ±100 for the full control effect; potency is read from the fitted curve at half-maximal effect; tags tell the direction and shape of the fitted curve.

SMILES	Potency	activity change, negative = growth inhibition
Oc1c(C(c2ccccn2)N2CCCCC2)cc(Cl)c2cccnc12 (stereo not drawn)	active: 10.3 µM	
C[C@@H]1CN([C@@H](C)CO)C(=O)CCCn2nncc2CO[C@@H]1CN(C)S(=O)(=O)c1cccc(F)c1		inactive: -23.8%
O=c1[nH]c2ccccc2cc1CN(Cc1cccnc1)S(=O)(=O)c1ccc([N+](=O)[O-])cc1	inconclusive [inhibitor, single point]	
CNC(=O)OCN1C(=O)C2CC=CCC2C1=O (stereo not drawn)		inactive: -4.52%
COc1cc(OC)c(OC)cc1CN(C)C(c1ccccc1)c1nnnn1-c1ccccc1C (stereo not drawn)	inconclusive [inhibitor, single point]	
CC(=O)c1ccccc1-c1ccc2c(c1)CC(CNC(=O)c1ccnc(Cl)c1)O2 (stereo not drawn)	active: 20.6 µM	
CC(C)CN(CC(C)C)C(=S)NC1CCCCC1	inconclusive [inhibitor, single point]	
Cc1ccc(OCC(=O)N(Cc2ccc(Cl)cc2)CC2CCCO2)cc1C (stereo not drawn)	inconclusive [inhibitor, single point]	
CSc1ccc(/C=C2\CCn3c2nc2cc(C(=O)O)ccc2c3=O)cc1	inconclusive [inhibitor, single point]	
Cc1cc(C)c(OCCN(C)Cc2ccccc2)c(Br)c1	inconclusive [inhibitor, single point]	
Cc1cc(C(F)(F)F)nn1CC(=O)N1CCCC1		inconclusive: -49.3% [inhibitor]
CC(C)(C)CC(=O)Nc1nn[nH]n1		inactive: -12.8%
Cc1ccc(C2(c3noc(CN(C)CCO)n3)CCCC2)cc1	inconclusive [inhibitor, partial curve]	
Cc1occc1C(=O)NC1CCCN(Cc2ccc(Cl)cc2)C1 (stereo not drawn)	inconclusive [inhibitor, partial curve]	
O=C(CSC1=NCCS1)N1CCc2ccccc21	inconclusive [inhibitor, partial curve]	
Cc1cccc(C(=O)NCC(=O)N2CCCC2)c1		inactive: 14.1%
COc1ccc(/C=C/C(=O)c2c(O)cc(C)oc2=O)c(OC)c1	inconclusive [inhibitor, single point]	
CCN(CC)c1ccc(NC(=O)c2cccnc2)cc1	inconclusive [inhibitor, single point]	
CC(=O)NC(c1cccc(F)c1)c1nc(-c2ccc(N(C)C)cc2)cs1 (stereo not drawn)	inconclusive [inhibitor, single point]	
COc1ccc(NC(=O)CN(C)C(=O)c2cc(-c3ccncc3)nc3ccccc23)cc1		inconclusive: -37.2% [inhibitor]
CCN(CC)S(=O)(=O)c1ccc2c(c1)N(CC(=O)NCc1ccc(F)cc1)C(=O)CO2		inactive: -16.9%
CCCOc1ccc(C2C(=O)N(C3CCCCCC3)CC(=O)N2Cc2ccc(OC)cc2)cc1OC (stereo not drawn)	active: 23.1 µM	
Cc1cc(C)c(S(C)(=O)=O)c(Oc2cccc(C(F)(F)F)c2)n1		inactive: -2.05%
Cc1cc(N2CCN(c3cccc(C(F)(F)F)c3)CC2)n2nc(-c3ccccc3C)nc2n1	active: 16.4 µM	
C/C(=N\O)C(=O)OC1CC(C)CCC1C(C)C (stereo not drawn)	inconclusive [inhibitor, partial curve, poor fit]	

SMILES	Potency	activity change, negative = growth inhibition
CNC[C@@H]1Oc2cc(Br)ccc2S(=O)(=O)N([C@@H](C)CO)C[C@H]1C	inconclusive [inhibitor, partial curve, poor fit]	
COC(=O)c1sccc1NC(=O)CC1NCCNC1=O (stereo not drawn)		inactive: 8.26%
CC1(c2nnnn2-c2ccc3c(c2)OCCO3)CCC(=O)N1CCc1ccccc1F (stereo not drawn)	inconclusive [inhibitor, single point]	
CCC(Sc1nnnn1-c1ccccc1)C(=O)NC(C)c1ccccc1 (stereo not drawn)	inconclusive [inhibitor, single point]	
Cc1nc(-c2ccc(F)cc2)c(CC(=O)Nc2ccc(C)c(S(=O)(=O)N3CCOCC3)c2)s1	inconclusive [inhibitor, single point]	
Cc1nc2nc(C)c(NS(=O)(=O)c3ccc(Cl)s3)c(=O)n2[nH]1		inactive: -0.181%
Cc1cc(C(=O)Nn2c(-c3ccncc3)nc3ccccc3c2=O)ccc1[N+](=O)[O-]		inactive: -1.06%
Cc1ccc2c(c1)C1CN(C)CCC1N2C(=O)c1ccc(Cl)c(S(=O)(=O)N2CCOCC2)c1 (stereo not drawn)		inactive: -2.35%
Cn1cc(C(=O)CCl)c2ccccc21	active: 4.61 µM	
Clc1cccc(CSc2nccn2-c2ccccc2)c1	inconclusive [inhibitor, single point]	
OC(COc1ccc(Cl)cc1)CN1CCC(Cc2ccccc2)CC1 (stereo not drawn)	inconclusive [inhibitor, single point]	
Cc1ccc2oc(=O)c3cnn(CC(=O)N4CCN(c5cccc(C(F)(F)F)c5)CC4)c3c2c1	inconclusive [inhibitor, partial curve]	
O=S(=O)(c1cccc(C(F)(F)F)c1)N1CCC(Oc2ccc(-n3cnnn3)cc2)CC1	active: 4.61 µM	
O=C(Nc1cccc(Oc2ccccc2)c1)C1Cc2c(-c3ccco3)ccnc2O1 (stereo not drawn)	inconclusive [inhibitor, single point]	
Cc1cccc(C(=O)NCCCN(C)CCCNC(=O)c2cccc(C)c2)c1		inactive: -2.23%
CCC(C)n1c(SCC(=O)NCCc2ccc(S(N)(=O)=O)cc2)nc2ccsc2c1=O (stereo not drawn)	inconclusive [inhibitor, single point]	
CC(O)(c1cccc(F)c1)c1nc(-c2ccc(S(C)(=O)=O)cc2)cs1 (stereo not drawn)	active: 13 µM	
COc1cccc(NC(=O)Cn2c(=O)n(Cc3ccccc3)c(=O)c3c2c2cc(C)ccc2n3C)c1	active: 3.66 µM	
Oc1ccc(O)c(-c2cnns2)c1	inconclusive [inhibitor, single point]	
COc1cccc(Nc2nc(N)nc(-c3oc4ccccc4c3C)n2)c1	active: 8.2 µM	
c1ccc(-c2csc3ncnc(N4CCOCC4)c23)cc1	inconclusive [inhibitor, partial curve]	
O=C(Nc1ccccc1)C1=C[C@H](c2ccc(Br)cc2)C[C@H](OCc2ccc(CO)cc2)O1	inconclusive [inhibitor, single point]	
COc1cccc(-c2nc(N3CCCCC3)c3ccccc3n2)c1O	active: 20.6 µM	
Cc1cc(C)c(C)c(S(=O)(=O)N[C@@H](C)C(=O)OCc2cc(=O)n3cc(Br)ccc3n2)c1C		inactive: -28%
Cc1nc(NC(=O)c2c(-c3ccccc3Cl)noc2C)sc1C	inconclusive [inhibitor, single point]	

SMILES	Potency	activity change, negative = growth inhibition
COc1ccccc1C(=O)NCC(=O)NC(C)c1ccc(-n2ccnc2)cc1 (stereo not drawn)		inactive: -12.5%
Cc1cc(NCCO)nc(-n2nc(C)cc2C)n1		inactive: -5.41%
COc1ccc(NC(=O)C2=C(C)Nc3c(C(=O)Nc4ccc(C)cc4)cnn3C2c2cc(OC)ccc2OC)cc1 (stereo not drawn)	inconclusive [inhibitor, single point]	
S=C(NC1CCCCC1)N1CCOCCOCCN(C(=S)NC2CCCCC2)CCOCCOCC1	inconclusive [inhibitor, single point]	
Cc1cc(C)c2oc(-c3cc(NC(=O)Cc4ccccc4)ccc3Cl)nc2c1	inconclusive [inhibitor, partial curve]	
CC(Oc1ccc(Cl)cc1Cl)C(=O)NCCC1=CCCCC1 (stereo not drawn)	inconclusive [inhibitor, single point]	
CCN(CC(=O)NCc1ccc(F)cc1)C(=O)C1CCN(S(=O)(=O)c2ccc(C(C)C)cc2)CC1	inconclusive [inhibitor, single point]	
CCCCC1=CC2=C(c3ccco3)C(=O)C(C)(OC(=O)c3ccc(OC)cc3)C(=O)C2=CN1CCCOC(C)C (stereo not drawn)	active: 6.51 µM	
CC1(C(=O)NCc2ccccn2)CCN1C(=O)Cc1ccc(Cl)cc1Cl (stereo not drawn)		inactive: -17.9%
CC(NC(=O)CSc1nnc(-c2cc3cc(Cl)ccc3o2)n1C)c1ccccc1 (stereo not drawn)	inconclusive [inhibitor, single point]	
OCCC1CN(Cc2ccc(Oc3ncccn3)cc2)CCN1Cc1ccc(F)c(F)c1 (stereo not drawn)		inactive: -23.5%
O=C(Cc1cccc2ccccc12)Nc1ccc2c(c1)C(=O)NC2=O		inactive: -3.03%
CN1CCN(c2ccc(NC(=S)NC(=O)c3cccc4ccccc34)cc2)CC1	active: 11.6 µM	
O=C(NCCc1ccc2c(c1)OCCO2)c1cc(F)cc(F)c1	active: 16.4 µM	
CC(=O)c1ccccc1NS(=O)(=O)c1c(C)nn(-c2ccccc2)c1C	inconclusive [inhibitor, partial curve]	
C/C(N)=C(/C#N)C(=O)CSc1nnc(C)n1-c1ccccc1		inactive: 3.51%
COCCn1c(SCC(=O)Nc2cccc(OC)c2)nnc1-c1ccc(Cl)cc1	inconclusive [inhibitor, single point]	
Cc1nc(C)c(C(=O)OCC(=O)NCCc2ccc(F)cc2)s1		inconclusive: -32.7% [inhibitor]
O=C(CN1CC(=O)Oc2ccccc21)OCC(=O)c1ccc(Br)cc1	inconclusive [inhibitor, single point]	
O=C(O)CN1C(=O)C(=O)N(Cc2ccc(Cl)cc2Cl)C1=O		inactive: 2.39%
Cc1cc(C)c(S(=O)(=O)NCC2CCC(C(=O)NCc3ccc4c(c3)OCO4)CC2)c(C)c1 (stereo not drawn)	inconclusive [inhibitor, single point]	
Cc1cc(CNC(=O)C2CCC(=O)N(CCc3ccc(Cl)cc3)C2)no1 (stereo not drawn)		inactive: -5.14%
COc1ccc(Oc2nc3ccccc3n(C)c2=O)cc1	inconclusive [inhibitor, partial curve, poor fit]	

From PubChem BioAssay AID686978 (National Center for Advancing Translational Sciences (NCATS), 2013)
